These are yes or no findings as the source states them, for the method shown. Binding seen in cells or lysates may run through a third protein. Some results given as binding are weak or reduced against the parent protein; the word gives no strength.
Key:
Experiment in all cases: co-IP
[1] = target: Ume6-HA (Candida albicans) (UniProt Q59MD2)
[2] = target: Ume6^1–759-HA (Candida albicans) (UniProt Q59MD2)
[3] = target: Ume6^1–720-HA (Candida albicans) (UniProt Q59MD2)
[4] = target: Ume6^720–843-HA (Candida albicans) (UniProt Q59MD2)

Amino acid sequences for entries named in this document (tags omitted). A change or cut given only in a name is not applied to a line headed by its entry. Residues count along the entry.
UniProt Q59MD2: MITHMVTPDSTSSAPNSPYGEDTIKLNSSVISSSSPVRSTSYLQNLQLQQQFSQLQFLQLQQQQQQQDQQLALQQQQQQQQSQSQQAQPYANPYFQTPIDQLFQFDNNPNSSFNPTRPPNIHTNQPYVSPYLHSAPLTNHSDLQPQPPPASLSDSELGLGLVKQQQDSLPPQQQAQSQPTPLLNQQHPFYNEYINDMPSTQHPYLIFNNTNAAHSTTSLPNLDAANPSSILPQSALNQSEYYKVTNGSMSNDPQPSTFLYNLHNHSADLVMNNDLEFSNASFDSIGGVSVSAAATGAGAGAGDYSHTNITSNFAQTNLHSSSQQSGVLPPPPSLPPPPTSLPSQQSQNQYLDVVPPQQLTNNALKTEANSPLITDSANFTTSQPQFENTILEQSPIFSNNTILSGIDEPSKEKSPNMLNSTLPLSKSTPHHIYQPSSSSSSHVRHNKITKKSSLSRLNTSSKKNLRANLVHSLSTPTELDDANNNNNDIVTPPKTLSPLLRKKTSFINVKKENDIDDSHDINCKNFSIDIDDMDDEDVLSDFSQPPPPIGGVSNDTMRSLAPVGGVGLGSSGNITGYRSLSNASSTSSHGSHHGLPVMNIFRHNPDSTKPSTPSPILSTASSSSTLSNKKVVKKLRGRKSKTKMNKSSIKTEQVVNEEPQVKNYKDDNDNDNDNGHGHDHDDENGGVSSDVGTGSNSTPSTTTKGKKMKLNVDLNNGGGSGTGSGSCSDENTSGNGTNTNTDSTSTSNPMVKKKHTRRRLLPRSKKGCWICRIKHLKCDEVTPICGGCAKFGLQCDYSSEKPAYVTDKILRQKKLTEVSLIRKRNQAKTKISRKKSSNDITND
Ume6^1–759-HA: residues 1-759 of Q59MD2
Ume6^1–720-HA: residues 1-720 of Q59MD2
Ume6^720–843-HA: residues 720-843 of Q59MD2
UniProt Q59QC7: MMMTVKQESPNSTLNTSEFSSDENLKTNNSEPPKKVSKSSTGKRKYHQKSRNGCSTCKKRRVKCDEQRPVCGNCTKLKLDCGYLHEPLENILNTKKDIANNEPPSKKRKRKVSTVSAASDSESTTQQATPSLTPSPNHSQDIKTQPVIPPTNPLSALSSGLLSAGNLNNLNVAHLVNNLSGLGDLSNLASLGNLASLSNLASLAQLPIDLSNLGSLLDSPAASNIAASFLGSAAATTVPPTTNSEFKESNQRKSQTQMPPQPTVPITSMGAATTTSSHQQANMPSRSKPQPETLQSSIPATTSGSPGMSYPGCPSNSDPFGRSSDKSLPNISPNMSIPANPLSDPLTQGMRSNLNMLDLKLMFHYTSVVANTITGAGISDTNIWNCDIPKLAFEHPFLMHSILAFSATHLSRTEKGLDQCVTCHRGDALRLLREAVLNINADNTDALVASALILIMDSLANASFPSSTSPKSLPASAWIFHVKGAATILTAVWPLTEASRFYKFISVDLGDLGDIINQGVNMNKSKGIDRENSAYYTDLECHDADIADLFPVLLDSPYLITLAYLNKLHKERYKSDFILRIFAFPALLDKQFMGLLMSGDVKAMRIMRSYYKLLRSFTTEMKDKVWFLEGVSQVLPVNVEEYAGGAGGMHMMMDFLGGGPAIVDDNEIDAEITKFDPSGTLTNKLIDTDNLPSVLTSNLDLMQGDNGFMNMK
UniProt Q59UY7: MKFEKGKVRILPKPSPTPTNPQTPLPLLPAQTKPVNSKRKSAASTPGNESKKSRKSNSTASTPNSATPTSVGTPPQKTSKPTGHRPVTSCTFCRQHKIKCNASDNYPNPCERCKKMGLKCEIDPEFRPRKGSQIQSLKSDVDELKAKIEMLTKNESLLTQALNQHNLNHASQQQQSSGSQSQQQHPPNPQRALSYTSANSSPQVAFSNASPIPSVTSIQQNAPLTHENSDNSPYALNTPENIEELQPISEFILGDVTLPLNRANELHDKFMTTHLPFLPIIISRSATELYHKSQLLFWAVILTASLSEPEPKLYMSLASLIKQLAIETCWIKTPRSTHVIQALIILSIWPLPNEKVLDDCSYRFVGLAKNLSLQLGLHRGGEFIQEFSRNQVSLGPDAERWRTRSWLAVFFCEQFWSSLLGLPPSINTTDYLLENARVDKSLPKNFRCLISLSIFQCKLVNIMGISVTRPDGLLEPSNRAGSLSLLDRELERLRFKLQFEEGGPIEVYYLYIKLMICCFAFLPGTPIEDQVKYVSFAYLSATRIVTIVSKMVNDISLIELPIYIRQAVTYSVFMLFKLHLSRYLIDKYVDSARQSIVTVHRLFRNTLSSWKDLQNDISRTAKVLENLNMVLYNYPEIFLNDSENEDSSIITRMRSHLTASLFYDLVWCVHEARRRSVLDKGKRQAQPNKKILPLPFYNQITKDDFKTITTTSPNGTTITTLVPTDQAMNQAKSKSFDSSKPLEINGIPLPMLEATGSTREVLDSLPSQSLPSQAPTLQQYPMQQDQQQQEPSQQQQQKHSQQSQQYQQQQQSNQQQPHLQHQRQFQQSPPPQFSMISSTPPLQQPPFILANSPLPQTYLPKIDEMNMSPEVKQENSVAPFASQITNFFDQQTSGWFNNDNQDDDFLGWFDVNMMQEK
UniProt Q5ACU9: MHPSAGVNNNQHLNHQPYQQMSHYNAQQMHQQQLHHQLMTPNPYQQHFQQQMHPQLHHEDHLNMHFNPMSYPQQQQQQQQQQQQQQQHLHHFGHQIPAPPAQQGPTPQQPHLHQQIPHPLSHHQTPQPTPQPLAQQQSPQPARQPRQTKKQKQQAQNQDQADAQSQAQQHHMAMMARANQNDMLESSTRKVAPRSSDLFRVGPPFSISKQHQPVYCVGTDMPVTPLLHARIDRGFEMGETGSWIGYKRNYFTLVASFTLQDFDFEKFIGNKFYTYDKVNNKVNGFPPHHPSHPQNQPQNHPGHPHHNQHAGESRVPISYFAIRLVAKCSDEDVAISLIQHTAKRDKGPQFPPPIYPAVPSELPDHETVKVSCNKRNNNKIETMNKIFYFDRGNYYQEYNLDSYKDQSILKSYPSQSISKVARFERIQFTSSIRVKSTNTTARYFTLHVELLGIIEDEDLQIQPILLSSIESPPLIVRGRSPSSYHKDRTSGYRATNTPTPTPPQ

Substance	binding [1]	binding [2]	binding [3]	binding [4]
Upc2-FLAG (from UniProt Q59QC7 1-712)	binds	no binding	no binding	binds
Sef1-FLAG (from UniProt Q59UY7 1-917)	no binding	–	–	–
Ndt80-FLAG (from UniProt Q5ACU9 1-504)	binds	no binding	no binding	binds

From PMC12408341
